# According to publication PMC12040169 (PLOS Biology, 2025):
# This is one part of the list.
# System: T1, C. trachomatis L2/434/Bu expressing GFP (CTL2-GFP)
# T1 construct: L2/434/Bu GFP intracellular growth in HeLa cells
# Set-up: species or system HeLa; C. trachomatis total inclusion area by high-content imaging, normalised to DMSO
# Settings: total inclusion area; 28.5 h, 10 µM; inhibitor
# How it was run: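 Imaging read-out: GFP inclusions and Hoechst nuclei captured by high-content imaging after fixation. Inclusion area/number = chlamydial growth; nuclei count = host cell viability. MIC calculated per earlier method.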
row,SMILES,% of control remaining
1,Cc1ccc(S(=O)(=O)c2ccccc2)cc1S(=O)(=O)NCc1ccncc1 [CBK270073],98.4764
2,Cc1nnc(CN(CC2CCCO2)C2CCC(C)CC2)n1C (stereo not drawn) [CBK305548],110.386
3,O=C(O)c1ccc2c(c1)C(=O)N(c1nc(-c3cccnc3)n[nH]1)C2=O [CBK268284],98.1935
4,N=c1c2c3c(sc2ncn1CCCN1CCOCC1)CCCC3 [CBK268323],73.4236
5,COc1cncc(-c2cc(Nc3ccc(O)cc3C)ncn2)c1 [CBK091061],78.9534
6,O=C(c1cc(-c2ccccc2)n[nH]c1=O)N1CCc2ccccc2C1 [CBK291216],105.187
7,Cn1ccnc1CN1CCC2(CC1)CC(C(=O)O)N(C(=O)C1CC1)C2 (stereo not drawn) [CBK306986],92.1553
8,Cc1noc2nc(-c3ccccc3F)cc(C(=O)N3CCCC3c3nnc4ccccn34)c12 (stereo not drawn) [CBK296756],92.4756
9,CCCc1cc(C(=O)N2CCNCC2C(=O)N2CCN(C)CC2)ccn1 (stereo not drawn) [CBK307619],63.4533
10,COc1ccc(C(=O)c2c(N)c(C(=O)Nc3ccccc3)c3ccccn23)cc1 [CBK300509],79.8159
11,O=C(/C=C/c1ccc(Cl)cc1Cl)NCCNc1c(Cl)cccc1[N+](=O)[O-] [CBK264295],74.9332
12,COc1ccc(C(=O)NNC(=O)/C=C/c2ccc(C(C)C)cc2)cc1 [CBK261697],33.0282
13,Cc1cc(NC(=O)c2ccc(S(=O)(=O)N(C)C)cc2)nc2c1c(=O)oc1ccccc12 [CBK291135],117.356
14,CCc1cc(C(=O)N2CCCC(c3cc4ccccc4cn3)C2)on1 (stereo not drawn) [CBK285156],108.399
15,N#Cc1ccc(NC(=O)c2ccc(-n3cnnc3)cc2Cl)cc1 [CBK269758],87.274
16,Cc1cc(S)n2nc(C)c(-c3ccccc3)c2n1 [CBK288423],106.125
17,NS(=O)(=O)c1ccc(Nc2c(C(=O)O)cc([N+](=O)[O-])cc2[N+](=O)[O-])cc1 [CBK261319],94.3825
18,O=S(=O)(Nc1cccc(-c2cnco2)c1)c1ccc(Cl)c(Cl)c1 [CBK067117],91.8111
19,Cn1c(SCC(=O)N2CCN(c3ccccc3)CC2)nnc1-c1cccc([N+](=O)[O-])c1 [CBK265209],126.219
20,CN(CC(=O)N1CCN(Cc2ccc3c(c2)OCO3)CC1)S(=O)(=O)c1ccc2ccccc2c1 [CBK267016],78.3466
21,COC(=O)c1c(NC(=S)Nc2ccc(CC(=O)O)cc2)sc(C)c1C [CBK267111],127.985
22,CCCC(=O)NCCn1nc(-c2ccccc2F)cc1CN(C)C [CBK282000],95.4152
23,COc1cccc(Nc2nnc(-c3cc4cc(OC)ccc4oc3=O)s2)c1 [CBK264432],93.2145
24,CCO/C(C)=C/c1sc2ccc3ccccc3c2[n+]1CCCS(=O)(=O)[O-] [CBK260948],84.6991
25,Nc1nc(-c2ccccc2I)n[nH]1 [CBK027413],93.4859
26,c1ccc(CCCN2CCN(Cc3ccccn3)CC2)cc1 [CBK263461G],103.32

row,SMILES,% of control remaining
1,O=C(NCCSCc1ccco1)Nc1cccc(Cl)c1 [CBK268277],87.7399
2,Cc1cc(/C=N\NC(=O)c2cc3ccccc3cc2O)c(C)n1-c1ccccc1 [CBK261801],96.5182
3,CCOC(=O)CCNC(=O)/C=C/c1ccc(C(C)C)cc1 [CBK149643],100.993
4,COc1ccc(C(=O)CN2CCC3(CC2)CC(=O)c2cc(Br)ccc2O3)cc1 [CBK162265],60.355
5,O=C(NCc1ccc(OC2CCNCC2)cc1)c1cccs1 [CBK036353T],107.268
6,CN(/N=C/c1cc(Br)cs1)c1ccc(Cl)nn1 [CBK028729],54.9504
7,Cn1cc(CN2CCCN(C(=O)c3ccc4ccccc4n3)CC2)cn1 [CBK305369],75.9954
8,Cc1cnc2[nH]c(C(F)(F)F)c(CN3CCN(C)CC3)c2c1 [CBK284765],104.367
9,COc1cccc(C(NC(=O)c2cc(CN3CCOCC3)c(C)o2)c2ccccc2)c1 (stereo not drawn) [CBK286279],105.449
10,Cc1ccc(S(=O)(=O)N(C)CCCC(=O)n2cnc3ccccc32)cc1 [CBK264457],105.437
11,Cc1cc(CNC(=O)C2=CC(=O)CC(C)(C)O2)no1 [CBK153281],63.24
12,CCN(CC(=O)NCc1cccs1)C(=O)CN1CCCC1c1ccc(C)cc1 (stereo not drawn) [CBK297761],84.35
13,CCCc1n[nH]c(C2CCCC2)c1C(=O)OCC [CBK115727],70.7407
14,CCCC(=O)Nc1ccc(OCc2ncc(C(C)(C)C)o2)c(C(C)=O)c1 [CBK305218],101.71
15,O=C(NCc1ccc(-c2csnn2)cc1)c1ccc(Oc2ccccc2)cc1 [CBK149300],91.1245
16,Nc1nonc1-n1nnc(C(=O)N/N=C2\CCc3ccccc32)c1-c1ccccc1 [CBK261988],101.405
17,Cc1cc(/C=N/O)c(C)c(COCc2cc(C)cc(/C=N/O)c2C)c1 [CBK261770],94.3122
18,Cc1nc2ccccc2c(SCCC(=O)O)c1Cc1ccccc1 [CBK144942T],92.241
19,COc1cc2c(cc1OC)CN(C(=O)N(CCN)CCC(C)c1ccccc1)CC2 (stereo not drawn) [CBK000612C],17.7758
20,COc1ccc(S(=O)(=O)Nc2nccnc2-c2ccc3[nH]ccc3c2)cc1 [CBK050805],96.4736
21,CCCOc1ncccc1O [CBK001459],102.702
22,Cc1nn(CC(=O)N(C)Cc2cnn(C)c2)c(=O)c2ccccc12 [CBK305701],62.5373
23,CCCn1cnc2cc(NC(=O)Cn3cccc(C(=O)NC4CCCCC4)c3=O)ccc21 [CBK286075],94.589
24,Cc1c(C(=O)N2CCC(N3CCSCC3)CC2)[nH]c2c(F)cccc12 [CBK307065],63.0591
25,COc1ccc(Br)cc1S(=O)(=O)n1ccnc1C [CBK264003],91.1456
